In the supplement of paper PMC8183993:
“And” between values parts separate entries of the source, which are not always exact repeats. Equal entries are not always repeated. Structures can show the parent of a compound that is named as a salt. ± gives the standard deviation of the averaged measurements. Whole data set: some 3,100 compounds, median “mean cytoplasmic OPP incorporation (global translation) relative to DMSO” near 100, cut for the lowest 2% near 56. This is one part of the list. Bridge positions count the residues as written; N and C are the ends. Square brackets hold non-standard residues; d marks the D form. Peptide text beside a SMILES is read from it. * marks the point of attachment. Ileψ(thiazoline)Cys = CC[C@H](C)[C@H](N)C1=N[C@H](C(=O)*)CS1; dOrn = NCCC[C@@H](N)C(=O)O

Tested on: U2OS
Test: mean cytoplasmic OPP incorporation (global translation) relative to DMSO (% of DMSO); higher = more protein synthesis
Conditions: 10 µM; 24 h
Experimental: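 Primary image-based screen in U2OS cells: compounds at 10 uM for 24 h, then a 1 h o-propargyl-puromycin (OPP) pulse, click labelling, and high-throughput microscopy. Mean cytoplasmic OPP intensity and nuclei count were normalised to DMSO wells within each plate (DMSO = 100) and averaged over triplicate plates.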

| SMILES | mean cytoplasmic OPP incorporation |
| --- | --- |
| Cc1cn(CCN2CCN(c3ccccc3-c3cc(C#N)cc(C(=O)NCCCN4CCCC4)c3)CC2)c2ccccc12 | 30.6 |
| CC(=O)C1=C(O)C=C2Oc3c(C(C)=O)c(O)c(C)c(O)c3[C@]2(C)C1=O [Usnic acid] | 101 |
| CC[C@H](C)[C@H](N)C1=N[C@H](C(=O)N[C@@H](CC(C)C)C(=O)N[C@H](CCC(=O)O)C(=O)N[C@H](C(=O)N[C@H]2CCCCNC(=O)[C@H](CC(N)=O)NC(=O)[C@@H](CC(=O)O)NC(=O)[C@H](Cc3cnc[nH]3)NC(=O)[C@@H](Cc3ccccc3)NC(=O)[C@H]([C@@H](C)CC)NC(=O)[C@@H](CCCN)NC2=O)[C@@H](C)CC)CS1 [Bacitracin] ({Ileψ(thiazoline)Cys}-L[dE]IK[dOrn]I[dF]H[dD]N; lactam 4-C) | 102 |
| OC(CNCC(O)C1CCc2cc(F)ccc2O1)C1CCc2cc(F)ccc2O1 (stereo not given) [Nebivolol (Bystolic)] | 110 |
| OC(CNCC(O)C1CCc2cc(F)ccc2O1)C1CCc2cc(F)ccc2O1 (stereo not given) [Nebivolol hydrochloride] | 105 |
| C[C@@H](O)[C@H]1C(=O)N2C(C(=O)O)=C(S[C@@H]3CN[C@H](CNS(N)(=O)=O)C3)[C@H](C)[C@H]12 [Doripenem Hydrate] | 103 |
| Oc1c(I)cc(Cl)c2cccnc12 [Clioquinol] | 101 |
| CC(C)(C#N)c1cc(Cn2cncn2)cc(C(C)(C)C#N)c1 [Anastrozole] | 97.3 |
| COc1cc2nccc(Oc3ccc(NC(=O)Nc4cc(C)on4)c(Cl)c3)c2cc1OC [Tivozanib (AV-951)] | 105 |
| COC(=O)/C=C/c1cc(O)ccc1O [Methyl 2,5-dihydroxycinnamate] | 96.5 |
| CNC(=O)c1cccc(-c2ccc3c(N4CCOC[C@@H]4C)nc(N4CCOC[C@@H]4C)nc3n2)c1 | 67.8 ± 15 |
| C=CCNC(N)=S [Allylthiourea] | 100 |
| CN(C)CCOC(C)(c1ccccc1)c1ccccn1 (stereo not given) [Doxylamine succinate] | 104 |
| CC(=O)c1ccc2c(c1)N(CCCN(C)C)c1ccccc1S2 [Acetopromazine maleate salt] | 103 |
| COc1cccc(-c2cc(=O)c3ccccc3o2)c1N | 95.8 and 83.2 and 82.5 |
| CN(C(=O)C(Cl)Cl)c1ccc(OC(=O)c2ccco2)cc1 [Diloxanide furoate] | 99.2 |
| CCc1cc(Nc2nccc(-c3c(-c4ccc(OC)c(C(=O)Nc5c(F)cccc5F)c4)nc4ccccn34)n2)c(OC)cc1N1CCC(N2CCN(S(C)(=O)=O)CC2)CC1 | 109 ± 5 |
| OC(CCCN1CCN(c2ncc(F)cn2)CC1)c1ccc(F)cc1 (stereo not given) | 96.1 |
| Nc1ccn([C@H]2CC[C@@H](CO)O2)c(=O)n1 [Zalcitabine] | 115 |
| Cc1cccc(C)c1OCC(C)N (stereo not given) [Mexiletine hydrochloride] | 101 ± 1.2 |
| CN[C@@H](C)C(=O)N[C@H]1CN(C(=O)CC(C)C)CC[C@H]2CC[C@@H](C(=O)NC(c3ccccc3)c3ccccc3)N2C1=O | 123 |
| COc1ccccc1N1CCN(CCCCN2C(=O)c3ccccc3C2=O)CC1 [NAN-190 hydrobromide] | 102 |
| CN1[C@@H]2CC[C@H]1C[C@@H](OC(=O)c1c[nH]c3ccccc13)C2 [Tropisetron hydrochloride] | 94.8 |
| CN1[C@@H]2CC[C@H]1C[C@@H](OC(=O)c1c[nH]c3ccccc13)C2 [Tropisetron HCl] | 96.9 |

| SMILES | mean cytoplasmic OPP incorporation |
| --- | --- |
| Cc1cc(=O)[nH]c(=S)[nH]1 [Methylthiouracil] | 99.5 |
| Cc1cc(I)ccc1Nc1c(C(=O)NOCC2CC2)cc(F)c(F)c1F | 97.5 |
| CC(=O)[C@H]1CC[C@H]2[C@@H]3C=CC4=CC(=O)CC[C@@]4(C)[C@@H]3CC[C@]12C [Dydrogesterone] | 110 |
| O=C(O)c1ccc(N2C(=O)C(=Cc3ccccc3)SC2=S)cc1 | 102 |
| CC[C@]1(O)C[C@H]2CN(CCc3c([nH]c4ccccc34)[C@@](C(=O)OC)(c3cc4c(cc3OC)N(C=O)[C@H]3[C@@](O)(C(=O)OC)[C@H](OC(C)=O)[C@]5(CC)C=CCN6CC[C@]43[C@@H]65)C2)C1 [Vincristine sulfate] | 93.4 |
| CC[C@]1(O)C[C@H]2CN(CCc3c([nH]c4ccccc34)[C@@](C(=O)OC)(c3cc4c(cc3OC)N(C=O)[C@H]3[C@@](O)(C(=O)OC)[C@H](OC(C)=O)[C@]5(CC)C=CCN6CC[C@]43[C@@H]65)C2)C1 [Vincristine] | 101 |
| Nc1nc(CC(=O)Nc2ccc(CCNC[C@H](O)c3ccccc3)cc2)cs1 [Mirabegron (YM178)] | 111 |
| NC[C@@H]1O[C@H](O[C@H]2[C@@H](O)[C@H](O[C@@H]3[C@@H](O)[C@H](N)C[C@H](N)[C@H]3O[C@H]3O[C@H](CO)[C@@H](O)[C@H](O)[C@H]3N)O[C@@H]2CO)[C@H](N)[C@@H](O)[C@@H]1O [Paromomycin sulfate] | 105 |
| COc1ccccc1OCC(O)CO (stereo not given) [Guaifenesin] | 94.9 |
| CCOc1cc2ncc(C#N)c(Nc3ccc(F)c(Cl)c3)c2cc1NC(=O)/C=C/CN(C)C [Pelitinib (EKB-569)] | 84.4 |
| Oc1c(Cl)cc(Cl)c(Cl)c1Cc1c(O)c(Cl)cc(Cl)c1Cl [Hexachlorophene] | 107 ± 3.6 |
| Cc1c(N(C)C)c(=O)n(-c2ccccc2)n1C [Amidopyrine] | 105 |
| C=C1C(=O)[C@]23[C@H](O)[C@H]1CC[C@H]2[C@@]12CO[C@]3(O)[C@@H](O)[C@@H]1C(C)(C)CC[C@@H]2O [Oridonin (Isodonol)] | 78.2 |
| NC(=O)c1ccc2[nH]ccc2c1 | 96.1 |
| Oc1ccc(/C=C/c2cc(O)cc(O)c2)cc1 [Resveratrol] | 96.4 ± 5.4 |
| CCOC(=O)C1=C(COCCN)NC(C)=C(C(=O)OC)C1c1ccccc1Cl (stereo not given) [Amlodipine besylate] | 99.4 |
| CCOC(=O)C1=C(COCCN)NC(C)=C(C(=O)OC)C1c1ccccc1Cl (stereo not given) [Amlodipine] | 104 ± 3.4 |
| CCN(CC)CCNC(=O)c1c(C)[nH]c(/C=C2\C(=O)Nc3ccc(F)cc32)c1C [Sunitinib Malate (Sutent)] | 74.8 |
| COc1ccc(/C=C/C(=O)Nc2ccccc2C(=O)O)cc1OC [Tranilast] | 97.1 ± 1.6 |
| CN(C)C(=O)C(CCN1CCC(O)(c2ccc(Cl)cc2)CC1)(c1ccccc1)c1ccccc1 [Loperamide hydrochloride] | 109 ± 4.4 |
| Cc1ccccc1C(=O)Nc1ccc(C(=O)N2CCCC(O)c3cc(Cl)ccc32)c(C)c1 (stereo not given) | 107 |
| CC[N+](CC)(CC)CCOc1ccc(/C=C/c2ccccc2)cc1 | 93.2 |
| CC(C)c1cc2c(c(O)c1O)[C@@]13CCCC(C)(C)[C@@H]1C[C@@H]2OC3=O [Carnosol] | 107 |
| CC(=O)O[C@H]1CC[C@@]2(C)C(=CC[C@@H]3[C@@H]2CC[C@]2(C)C(c4cccnc4)=CC[C@@H]32)C1 [Abiraterone Acetate (CB7630)] | 97.8 |

| SMILES | mean cytoplasmic OPP incorporation |
| --- | --- |
| COc1ccccc1N1CCN(CCN2C(=O)c3ccccc3C(C)(C)C2=O)CC1 [ARC 239 dihydrochloride] | 110 |
| Nc1nc2[nH]cnc2c(=S)[nH]1 [Thioguanine] | 131 |
| O=C1c2c(O)cccc2C([C@@H]2O[C@H](CO)[C@@H](O)[C@H](O)[C@H]2O)c2cc(CO)cc(O)c21 (stereo not given in full) [Aloin (Barbaloin)] | 123 |
| CCCCc1cc2ccccc2c(OCCN(C)C)n1 [Dimethisoquin hydrochloride] | 90.4 |
| CC(C(=O)O)c1ccc2c(c1)[nH]c1ccc(Cl)cc12 (stereo not given) [Carprofen] | 108 |
| C=CCc1cccc(/C=N/NC(=O)CN2CCN(Cc3ccccc3)CC2)c1O | 89.6 |
| Cc1cccc(C)c1NC(=O)C(C)N (stereo not given) [Tocainide hydrochloride] | 107 |
| CC(NC(=O)C(Cc1ccccc1)NC(=O)OCc1ccccc1)C(=O)CF (stereo not given) | 101 |
| COc1cc(C(=O)NC(=S)Nc2cccc(NC(=O)c3ccccc3)c2)cc(OC)c1OC | 117 |
| COc1cc([S+](C)[O-])ccc1-c1nc2cccnc2[nH]1 (stereo not given) [Sulmazole] | 106 |
| NC(N)=NC(N)=Nc1cccc(Cl)c1 [m-Chlorophenylbiguanide hydrochloride] | 102 |
| C[C@H]1O[C@@H](O[C@H]2[C@@H](O)C[C@H](O[C@H]3[C@@H](O)C[C@H](O[C@H]4CC[C@@]5(C)[C@H](CC[C@@H]6[C@@H]5C[C@@H](O)[C@]5(C)[C@@H](C7=CC(=O)OC7)CC[C@]65O)C4)O[C@@H]3C)O[C@@H]2C)C[C@H](O)[C@@H]1O [Digoxin] | 19 |
| O=C(OCC(O)CO)c1ccccc1Nc1ccnc2cc(Cl)ccc12 (stereo not given) [Glafenine hydrochloride] | 107 |
| COc1cc2c(N3CCN(C(=O)Nc4ccc(OC(C)C)cc4)CC3)ncnc2cc1OCCCN1CCCCC1 [Tandutinib (MLN518)] | 109 |
| NC(=O)c1cn(Cc2c(F)cccc2F)nn1 [Rufinamide (Banzel)] | 98.7 |
| CC(C(=O)O)c1ccc(-c2ccccc2)c(F)c1 (stereo not given) [Flurbiprofen] | 98.5 ± 8.3 |
| COc1cc(N)c(Cl)cc1C(=O)OCCCN1CCCCC1 | 104 |
| COc1ccc(CCN(C)CCCN2CCc3cc(OC)c(OC)cc3CC2=O)cc1OC [Zatebradine hydrochloride] | 107 |
| C[C@H](CCC(=O)O)[C@H]1CC[C@H]2[C@@H]3[C@H](O)C[C@@H]4C[C@H](O)CC[C@]4(C)[C@H]3C[C@H](O)[C@]12C [Cholic acid] | 100 |
| O=c1ccc2cc(O)c(O)cc2o1 [Esculetin] | 120 |
| COc1ccccc1N1CCN(CCCCNC(=O)c2ccc(-c3ccc(C(C)=O)cc3)cc2)CC1 | 115 |
| CCCCCCCC/C=C\CCCCCCCC(N)=O [Oleamide] | 101 |
